Source: PubChem BioAssay AID662 (National Center for Advancing Translational Sciences (NCATS), 2007)
Among all 71,000 compounds or so, about 1,800 (2.5%) were called active. Inconclusive results, whose numbers are uncertain, are shown with a selection of clear calls. The call rests on the fitted dose curve; in most records, active means well fitted activation curve with a large enough effect in the signal ratio, with a control signal flat (not every such curve was filed as active); inconclusive means small, poorly fitted or top-dose-only effect, or effect the other way, or a change in a side signal; inactive means flat fitted curve, though single readings scatter; the % refers to the signal ratio. Potencies beside an inconclusive call are fits to weak or partial responses and may not hold up.

Assay: Cell signaling CRE-BLA (Fsk stim); on activity change, negative = inhibition: % of control where 0% means no effect
Settings: CHO CRE-bla reporter (cAMP response element driving beta-lactamase), forskolin EC10, beta-lactamase ratio; activity change, negative = inhibition: at 38.2 µM (top of the series) unless noted
Summary of the method: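 Cells were plated overnight at 37 °C, exposed to compound titrations plus EC10 NKH 477 for 3 h, then given CCF4 dye for 2 h at room temperature. Blue/green (460/530 nm) ratio was converted to %Activity and AC50 values calculated.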
Potency means the concentration at half of the fitted maximal effect; tags describe the fitted curve by direction and shape.

Compound | activity change, negative = inhibition | Potency
CC(=O)N(CCP(=O)(c1ccccc1)c1ccccc1)Cc1ccco1 | inactive: 3.33% | –
CC(=O)N=c1sc2nc3ccccc3nc2n1N(C(C)=O)C(C)=O | inactive: 2.1% | –
N#CCSc1nc2scc(-c3cccs3)c2c(=O)n1CCc1ccccc1 | – | active: 2.51 µM
NC(N)=NC(=O)c1nc(Cl)c(N)nc1N | inconclusive: 1.4% | inconclusive: 5.01 µM [rising, single point]
c1coc(CNc2ncnc3c2oc2ccccc23)c1 | – | inconclusive: 2.51 µM [rising, full curve, poor fit]
COc1ccc(-n2nnnc2S(=O)(=O)Cc2ccc(C(=O)O)cc2)cc1 | inconclusive: 14.3% | –
COC(=O)c1ccccc1NC(=O)c1cc(-c2cccc(OC)c2)on1 | inconclusive: -9.59% | –
COc1ccc(S(=O)(=O)Cc2ccc(C(=O)N3CCN(c4cc(Cl)ccc4C)CC3)o2)cc1 | inconclusive: 25.4% [cytotoxic] | –
Cc1cc(NC(=O)COC(=O)C2CCN(C(=O)c3ccc(Cl)cc3)CC2)no1 | inconclusive: -16.1% | –
c1ccc(-c2ccc(N3CCCC4(CCNCC4)C3)cc2)cc1 | inconclusive: -25.3% | –
O=C1CC2(CCCC2)CC(=O)N1CCCCNC[C@H]1COc2ccccc2O1 | inactive: -27.6% | –
O=c1oc2c(O)c(O)cc3c(=O)oc4c(O)c(O)cc1c4c23 | inconclusive: 10.8% | –
CCc1nnc(NC(=O)CSc2nnc(-c3ccoc3C)n2-c2ccccc2)s1 | – | inconclusive: 12.6 µM [rising, single point]
CC(=O)OC(C)(C)N=Nc1ccc(Br)cc1 | inactive: -14.1% [at 7.6 µM] | –
COc1cccc(C2=NOC(C(=O)Nc3ccc(C(C)=O)cc3)C2)c1 (stereo not drawn) | – | inconclusive: 25.1 µM [rising, single point]
CC(=O)c1ccc(N2CCN(C(=O)c3cc(-c4ccc5c(c4)OCO5)nc4ccccc34)CC2)cc1 | inconclusive: 46.5% | –
Cc1cc(NC(=O)CSc2nc3c(c(=O)n(C)c(=O)n3C)n2C(C)C)no1 | – | inconclusive: 5.01 µM [rising, partial curve]
Nc1nc(N2CCOCC2)nc(N(c2ccccc2)c2ccccc2)n1 | inactive: 1.27% | –
CCn1c(NC2CCCCC2)nc2ccccc21 | inactive: -3.14% | –
Cc1ccc(S(=O)(=O)NC(CC(=O)NCC2CCCO2)c2ccco2)cc1 (stereo not drawn) | inactive: -7.71% | –
CC(=O)C1=C(C)N=c2s/c(=C/c3ccc4c(c3)OCO4)c(=O)n2C1c1ccc(N(C)C)cc1 (stereo not drawn) | – | inconclusive: 12.6 µM [falling, single point]
Cc1cc(NC(=O)CSc2nnc(-c3ccoc3C)n2N)no1 | – | inconclusive: 3.98 µM [falling, single point]
